From the supplement of paper PMC11417369
This is one part of the list.

system: PfHDP1 homeodomain (GST-tagged); assay: gcPBM binding intensity (ln(normalized median fluorescence intensity)); higher = stronger DNA binding
Method in brief: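 GST-tagged P. falciparum DNA-binding domains, expressed in E. coli (about 25 μg on average), were applied for 1 h to an Agilent 4 × 180k array of primer-extended double-stranded 36-bp intergenic genomic probes plus negative controls. The binding buffer was 1× PBS with 1% milk, 0.2 mg/ml BSA, 0.5% salmon testes DNA and 0.03% Triton X-100. Bound protein was detected with Alexa488 anti-GST antibody and scanned at 488 nm. Binding intensity is the highest Masliner-normalised natural-log median intensity across replicate spots of either probe orientation.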

Sequence	gcPBM binding intensity (ln)
TATTTTTTTTGTGTGTGTCCTCATGTAATACTGCAA [XGTACX_site1380]	7.01
CTTTTTAATTAATACACACACACACGGATATAAATA [CACACA_site7145]	7.07
ATATTATTTATGTATGCATGCGGCGAAATGGGCTTG [TGCATGCA_site28]	6.74
AATGGGTTACACATATGTACATAAAATATAAAAAAT [XGTACX_site3440]	6.96
TCTCATTTTCCCTAAAAAAAAAAATAAATAAAAATA [TGCATGCA_negctrl_site580]	6.5
TTTTTCCATATTGTAGCATGCAGTATATATATCATG [TGCATGCA_site530]	6.86
TAAAAATGGAAACACACACACATAAATATATTTTAT [CACACA_site2513]	6.97
ATTTCTATAAAAATAATCTACATTTTTTTTTTTTTT [CACACA_negctrl_site917]	6.03
TAACCACAATTTTAATGTACATATATATTTATATAT [XGTACX_site8968]	6.42
TATATACATATATATATATGTATAGATAGATACATT [CACACA_negctrl_site1511]	6.5
AATATTTTACAATACACATGCAAATAATATTCTAAA [TGCATGCA_site618]	6.92
TTTTGAAAAAATTTTTATAAAAGAATAAAATTATTA [XGTACX_negctrl_site570]	6.06
TTTTTTTACAACATTACACACAAATATTCTGGGTTA [CACACA_site3755]	6.99
AATATTATATTAAAATGTACAAAAATGAATTACTTT [XGTACX_site1473]	6.47
CAATGCAAGGCTTAAAAAAATGGGCATATTATATAT [GTGCAC_negctrl_site304]	6.38
ATTTATATATAAATGTGTACATATATATATATAAAC [XGTACX_site7592]	6.78
ATTGTAAGTAAACACACACACATATATCTGTATTTA [CACACA_site4542]	6.58
TACCATGTTCAAATTACACACATATAATGCAATATA [CACACA_site7034]	7.36
CTGAAATTAACAAAAGTGCATAAAAATAAAAAATAT [GTGCAC_site9652]	8.5
TCACATTTTGGACACGTGCACATATATTTGATACAT	9.58
AATATTTCTCATTTTGTGCACTGAAAAATGTAATAT	9.66
TCATATATCCTTATCACACATATAATAAATTCCCTT [CACACA_site4457]	6.59
TTCTTTGCTTTTCAAACACACAAAAGTTATTATAGT [CACACA_site6390]	6.44
ATATGATTATTATTATATAAATTATAAAGTCTAATA [GTGCAC_negctrl_site586]	6.08
GTTCTACAAGCCACTGCATGCTGATATAGAATAAAT [TGCATGCA_site138]	6.47
